# Test results published in the BET-seq Pho4 binding data (Le et al. 2018).
# Some of the results follow. These are noisy estimates, calculated here from bound and input reads.
# Biological target: T1, Pho4 (S. cerevisiae) (UniProt P07270)
# T1 sequence: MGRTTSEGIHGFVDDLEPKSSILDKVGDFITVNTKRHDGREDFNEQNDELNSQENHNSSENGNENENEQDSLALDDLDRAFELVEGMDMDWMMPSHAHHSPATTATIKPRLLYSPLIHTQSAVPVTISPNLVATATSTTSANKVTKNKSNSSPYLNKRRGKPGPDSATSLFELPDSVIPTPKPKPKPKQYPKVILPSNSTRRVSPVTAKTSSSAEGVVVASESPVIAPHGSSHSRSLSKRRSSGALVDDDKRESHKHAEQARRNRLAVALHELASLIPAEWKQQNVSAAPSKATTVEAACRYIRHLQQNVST
# Experiment: relative binding free energy (BET-seq); higher = weaker binding
# Conditions: reference: library average
row,Sequence,relative binding free energy
1,GGGCACACGTGCATGT,0.23 kcal/mol
2,ATAAGCACGTGTATAG,-0.11 kcal/mol
3,CTGGGCACGTGGTTGC,-0.14 kcal/mol
4,ATGGCCACGTGTTTGA,-0.06 kcal/mol
5,ACGTTCACGTGTTTGA,0.24 kcal/mol
6,GAGATCACGTGCGGTT,0.26 kcal/mol
7,AGAAGCACGTGGATTG,-0.08 kcal/mol
8,TGGAACACGTGATTAG,0.21 kcal/mol
9,TAAGTCACGTGTTGCT,-0.03 kcal/mol
10,CTTAGCACGTGTGCTG,-0.04 kcal/mol
11,ATGTGCACGTGTCGGC,-0.14 kcal/mol
12,CGTGGCACGTGAAGTT,0.17 kcal/mol
13,AGTGACACGTGGAGTC,0.24 kcal/mol
14,GGCGACACGTGGTGGG,-0.07 kcal/mol
15,CGGATCACGTGTGGTA,0.13 kcal/mol
16,TATGTCACGTGTAGGC,0.23 kcal/mol
17,TGGTTCACGTGTATAT,0.21 kcal/mol
18,TTTGACACGTGTCATT,0 kcal/mol
19,GGCTTCACGTGGTTGA,0.27 kcal/mol
20,GGGTCCACGTGGGGGA,-0.13 kcal/mol
21,TATAACACGTGAGTTA,0.24 kcal/mol
22,ATAGTCACGTGGCGTT,-0.03 kcal/mol
23,GGGAACACGTGGATGG,0.09 kcal/mol

row,Sequence,relative binding free energy
1,GGTTTCACGTGATCTA,0.45 kcal/mol
2,TGGTTCACGTGGCTGC,0.22 kcal/mol
3,GGGCGCACGTGGTATT,0.01 kcal/mol
4,ATGTGCACGTGGAGTC,0.06 kcal/mol
5,TCGTGCACGTGTTATT,-0.12 kcal/mol
6,TGGTCCACGTGATAGG,0.05 kcal/mol
7,TTGATCACGTGGCCGG,0.03 kcal/mol
8,TTTAACACGTGCTTGG,0.02 kcal/mol
9,GTAGGCACGTGTGGTG,0.02 kcal/mol
10,AGGGGCACGTGACGCA,-0.02 kcal/mol
11,ATTGTCACGTGGGTTT,-0.05 kcal/mol
12,GGCACCACGTGGGAGG,-0.1 kcal/mol
13,GGCAGCACGTGAGGAG,0.21 kcal/mol
14,CGGTTCACGTGATGTA,0.26 kcal/mol
15,TTTTGCACGTGAAGGT,0.22 kcal/mol
16,TGATTCACGTGTCATT,0.26 kcal/mol
17,AATGGCACGTGGTAAT,-0.14 kcal/mol
18,TGGCGCACGTGTTATT,-0.11 kcal/mol
19,AGAGTCACGTGTATGC,0.15 kcal/mol
20,AGGGTCACGTGTGTAT,0.21 kcal/mol
21,TGTGACACGTGGAGAG,-0.1 kcal/mol
22,GTAAGCACGTGTATAG,-0.09 kcal/mol
23,AGAGGCACGTGGATTG,-0.18 kcal/mol

row,Sequence,relative binding free energy
1,TTCGTCACGTGTAGTA,0.09 kcal/mol
2,CGGAGCACGTGGTTCG,-0.03 kcal/mol
3,TTTCCCACGTGGTTGT,-0.04 kcal/mol
4,TTTTTCACGTGAGAAG,0.31 kcal/mol
5,TTAGGCACGTGGTGTC,-0.2 kcal/mol
6,ATTGGCACGTGGGCAT,-0.2 kcal/mol
7,GGATACACGTGTATGA,0.14 kcal/mol
8,GTCTGCACGTGTGATA,0.21 kcal/mol
9,CTTCGCACGTGTTTGT,-0.23 kcal/mol
10,GTTTTCACGTGGGTCT,0.27 kcal/mol
11,GGTCGCACGTGAGGGG,0.18 kcal/mol
12,TATGACACGTGGGATC,0.18 kcal/mol
13,GTTTGCACGTGGGGTG,-0.12 kcal/mol
14,CGGGGCACGTGGTTGG,-0.11 kcal/mol
15,TAGGCCACGTGGGAAG,-0.15 kcal/mol
16,CTTTGCACGTGGAATT,0.16 kcal/mol
17,GTTTGCACGTGGGGTT,-0.02 kcal/mol
18,GTGTGCACGTGTATGC,0.05 kcal/mol
19,GCGTGCACGTGGGTCG,-0.07 kcal/mol
20,TGAGTCACGTGGATTA,0.16 kcal/mol
21,TGGGGCACGTGGTAAC,-0.18 kcal/mol
22,GTGTGCACGTGTAACT,0.18 kcal/mol
23,GGTGTCACGTGCCTTG,0.06 kcal/mol

row,Sequence,relative binding free energy
1,ATGTGCACGTGCGTAG,-0.22 kcal/mol
2,ACTGTCACGTGGGAGG,-0.08 kcal/mol
3,AGGGTCACGTGTTAAA,0.09 kcal/mol
4,ATTTGCACGTGGCTGA,-0.13 kcal/mol
5,TTGGCCACGTGATGGG,0.06 kcal/mol
6,GAGATCACGTGGGGAG,0.2 kcal/mol
7,GAGTGCACGTGGAGTA,-0.05 kcal/mol
8,TTATACACGTGTTGCT,-0.11 kcal/mol
9,CGGGGCACGTGTGCGG,-0.13 kcal/mol
10,TTTACCACGTGTTGGG,-0.02 kcal/mol
11,TCGGCCACGTGGTGGG,-0.07 kcal/mol
12,ATCTTCACGTGGTTAG,0.19 kcal/mol
13,GGCTACACGTGGGTGC,-0.06 kcal/mol
14,TTGATCACGTGATGTA,0.22 kcal/mol
15,TATGGCACGTGATGAT,0.05 kcal/mol
16,TGCTGCACGTGGGATA,-0.21 kcal/mol
17,TGGTTCACGTGTGTGG,0.33 kcal/mol
18,CGGGGCACGTGAATTT,0.29 kcal/mol
19,TAAGTCACGTGGTTGG,0.04 kcal/mol
20,CAGAGCACGTGGTGGT,-0.31 kcal/mol
21,TTATTCACGTGTCATT,0.24 kcal/mol
22,CTGAACACGTGGGTTT,-0.1 kcal/mol
23,TGAGGCACGTGAGAGA,0.09 kcal/mol

row,Sequence,relative binding free energy
1,ATCATCACGTGTGTGA,0.15 kcal/mol
2,ATGAGCACGTGTCGAG,-0.13 kcal/mol
3,TGGGGCACGTGTGCTA,-0.04 kcal/mol
4,TTATTCACGTGACGTG,0.19 kcal/mol
5,TGGTGCACGTGTAGCG,0.1 kcal/mol
6,GGAGCCACGTGTGTAT,0.02 kcal/mol
7,TCCAGCACGTGTGGGT,-0.11 kcal/mol
8,ATAGGCACGTGGTAGG,-0.15 kcal/mol
9,TGGAACACGTGGGGAC,-0.07 kcal/mol
10,TCTATCACGTGGTGGG,0.15 kcal/mol
11,TCAGGCACGTGTTTTG,-0.04 kcal/mol
12,TTTGTCACGTGTTGTT,0.13 kcal/mol
13,GTCGGCACGTGGAGTT,0.13 kcal/mol
14,GTGTGCACGTGTTAGG,0.01 kcal/mol
15,GGTGACACGTGGTCGC,-0.08 kcal/mol
16,TGGTGCACGTGAAGGA,0.11 kcal/mol
17,AAGGTCACGTGTTGGT,0.16 kcal/mol
18,TGGTGCACGTGGATTG,0.03 kcal/mol
19,TACAGCACGTGTTTGT,0.01 kcal/mol
20,CAGTGCACGTGTTGGC,0.05 kcal/mol
21,TGAATCACGTGAGGCT,0.26 kcal/mol
22,TATGTCACGTGTCAGT,0.15 kcal/mol
23,GTGGGCACGTGGGAAC,-0.14 kcal/mol
